Where “and” joins values, the source holds several entries; their conditions need not be identical. Equal values may be shown once. In all, about 410,000 compounds went through this assay and about 530 (0.13%) were called active. Inconclusive means that the source gave no clear call. Such entries were picked first, then a sample of the others. Calls come from the whole dose curve; as a rule, active = well fitted inhibition curve with a large enough effect; inconclusive = small, poorly fitted or top-dose-only effect, or another doubt; inactive = no such curve, though single readings can be large or run the other way. Where the call is inconclusive, the potency comes from a doubtful curve fit.
Test: qHTS of GLP-1 Receptor Inverse Agonists: Cytotox Screen
Settings: HEK293 cAMP-luciferase reporter cells, luminescence, 24 h; activity change, negative = inhibition: at 38.3 µM (top of the series) unless noted
Summary of the method: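 Luminescence readout: signal drop marks cytotoxicity. Plated cells grew 12 h at 37 °C, 5% CO2, received 23 nL compound for 24 h, then got luciferase reagent, read after 12 min at RT.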
% is set by controls: 0 for no effect and ±100 for the full control effect; potency is the fitted concentration of half-maximal effect.

**Q.** Which Potency does the source give for `CC(Oc1ccc(Br)cc1)C(=O)Nc1nc(-c2ccccn2)cs1` (stereo not given) here?
**A.** Its Potency is inconclusive: 20 µM [inhibitor, single point].

**Q.** With `COc1cccc2sc(N(Cc3cccnc3)C(=O)C3CCCCC3)nc12` as the compound, how does the Potency read?
**A.** Its Potency is “inactive”.

**Q.** With `Oc1cccc(/C=N/N(Cc2ccccc2)c2ccccc2)c1` as the compound, how does the Potency read?
**A.** The Potency was inconclusive: 28.2 µM [inhibitor, single point].

**Q.** Which Potency does the source give for `O=C(O)CSc1ccc2ccccc2n1` here?
**A.** The Potency was “inactive”.

**Q.** For `CC1=CC(c2ccccc2)n2nc(N3C(=O)CCC3=O)nc2N1` (stereo not given), which Potency is on record?
**A.** Its Potency is “inactive”.

**Q.** For `CC(C)(C)C(=O)N1CCN(c2c(Cl)cccc2[N+](=O)[O-])CC1`, which Potency is on record?
**A.** Its Potency is inconclusive: 6.31 µM [inhibitor, partial curve, poor fit].

**Q.** Which Potency does the source give for `CCOc1cc2c(c3c1C(c1ccccc1)N(S(=O)(=O)c1ccc(C)cc1)C3)C(=O)C=CC2=O` (stereo not given) here?
**A.** Its Potency is inconclusive: 8.91 µM [inhibitor, partial curve, poor fit].

**Q.** Which Potency does the source give for `Cc1cccc(CSC(=N)N)c1` here?
**A.** The Potency was “inactive”.

**Q.** Which Potency does the source give for `COc1ccc(-c2ccc(SCC(=O)N3c4ccccc4CC3C)nn2)cc1OC` (stereo not given) here?
**A.** Its Potency is inconclusive: 0.501 µM [inhibitor, full curve, poor fit].

**Q.** For `C/C(=N\NC(=O)c1cc(-c2cccnc2)nc2ccccc12)c1ccccc1O`, which activity change, negative = inhibition is on record?
**A.** Its activity change, negative = inhibition is inconclusive: -52.5% [inhibitor] [at 1.53 µM].

**Q.** Which Potency does the source give for `Cc1ccc(-c2cc(N)n(Cc3ccc(Cl)cc3)n2)cc1` here?
**A.** Its Potency is “inactive”.

**Q.** Which Potency does the source give for `COC(=O)c1ccc(C2c3c(-c4ccc(Br)cc4)n[nH]c3C(=O)N2c2ccc(Cl)cc2)cc1` (stereo not given) here?
**A.** Its Potency is inconclusive: 20 µM [inhibitor, single point].

**Q.** With `C=C1C(=O)O[C@@H]2[C@H]1CC[C@H](C)[C@]1(O)CCC(=O)[C@@]21C` as the compound, how does the Potency read?
**A.** Its Potency is inconclusive: 10 µM [inhibitor, single point].

**Q.** Which Potency does the source give for `Cc1nn(-c2ccccc2)c2c1CC(=O)Nc1ccccc1-2` here?
**A.** Its Potency is inconclusive: 1 µM [inhibitor, full curve, poor fit].

**Q.** With `CC1CCN(C(=O)CN2c3ccc(Br)cc3-c3ccccc3S2(=O)=O)CC1` as the compound, how does the Potency read?
**A.** The Potency was “inactive”.

**Q.** For `CNc1nc(N/N=C/c2cc3c(cc2[N+](=O)[O-])OCO3)nc(Nc2ccccc2)n1`, which Potency is on record?
**A.** Its Potency is inconclusive: 11.2 µM [inhibitor, partial curve, poor fit].

**Q.** With `Cc1sc2ncnc(SCC(=O)Nc3ccc(S(=O)(=O)N4CCOCC4)cc3)c2c1C` as the compound, how does the Potency read?
**A.** The Potency was “inactive”.

**Q.** For `COc1cc(/C=C2\SC(=O)N(c3ccccc3Cl)C2=O)cc([N+](=O)[O-])c1O`, which Potency is on record?
**A.** Its Potency is inconclusive: 11.2 µM [inhibitor, partial curve, poor fit].

**Q.** With `Cc1ccc(C)c(N/C(N)=N/c2nc(C)cc(C)n2)c1` as the compound, how does the Potency read?
**A.** Its Potency is inconclusive: 12.6 µM [inhibitor, partial curve, poor fit].

**Q.** With `Cc1cc(OCC(=O)NNC(=S)NCC2CCCO2)cc(C)c1Cl` (stereo not given) as the compound, how does the Potency read?
**A.** The Potency was “inactive”.

**Q.** For `CN(C(=O)CSc1nc2ccc(NC(=O)COc3ccc(F)cc3)cc2s1)c1ccccc1`, which Potency is on record?
**A.** Its Potency is inconclusive: 28.2 µM [inhibitor, single point].

**Q.** For `Cc1cc(C)cc(NS(=O)(=O)c2ccc(-c3cc(C)no3)s2)c1`, which Potency is on record?
**A.** Its Potency is inconclusive: 5.62 µM [inhibitor, full curve].

**Q.** For `Cn1cccc1/C=N/NC(=O)CNc1cccc2ccccc12`, which Potency is on record?
**A.** Its Potency is inconclusive: 11.2 µM [inhibitor, partial curve, poor fit].

**Q.** With `Cc1c(C(=O)N(C)C)sc2c1c(=O)n(-c1ccccc1C(F)(F)F)c(=O)n2Cc1ccccc1C#N` as the compound, how does the Potency read?
**A.** Its Potency is “inactive”.

**Q.** For `Cc1cc(C(=O)CSc2cccc[n+]2[O-])c(C)n1-c1ccccc1`, which Potency is on record?
**A.** The Potency was inconclusive: 12.6 µM [inhibitor, single point].

**Q.** Which Potency does the source give for `Cn1c(=O)c([N+](=O)[O-])c(N2CCN(Cc3ccc4c(c3)OCO4)CC2)c2ccccc21` here?
**A.** Its Potency is inconclusive: 10 µM [inhibitor, single point].

**Q.** For `O=C(CN1CCN(c2ccc(O)cc2)CC1)Nc1ccccc1C(=O)NCCc1ccccc1`, which Potency is on record?
**A.** The Potency was inconclusive: 8.91 µM [inhibitor, partial curve, poor fit].

**Q.** With `CC1=Nc2cc(C(=O)NC3CCC(C)CC3)ccc2Sc2c(C)ccc(C)c21` (stereo not given) as the compound, how does the Potency read?
**A.** The Potency was inconclusive: 0.501 µM [inhibitor, full curve, poor fit].

**Q.** Which Potency does the source give for `COC(=O)C1CCN(Cc2ccc(OCCCN3CCN(c4ccc([N+](=O)[O-])cc4)CC3)cc2)CC1` here?
**A.** The Potency was inconclusive: 14.1 µM [inhibitor, single point].

**Q.** For `O=C1c2c(O)ccc(O)c2C(=O)c2c(NCCNCCO)ccc(NCCNCCO)c21`, which Potency is on record?
**A.** Its Potency is inconclusive: 7.08 µM [inhibitor, partial curve, poor fit] and inconclusive: 4.47 µM [inhibitor, partial curve, poor fit].

**Q.** Which Potency does the source give for `COc1ccccc1CNc1nc(NCc2ccc(C(C)C)cc2)c2sccc2n1` here?
**A.** Its Potency is inconclusive: 11.2 µM [inhibitor, single point].

**Q.** For `CCOC(=O)Nc1ccc2c(c1)C(=NNC(N)=S)c1ccccc1-2`, which Potency is on record?
**A.** Its Potency is active: 3.98 µM.

**Q.** Which Potency does the source give for `O=c1[nH]c2cc3c(cc2cc1CN(Cc1cccnc1)Cc1nnnn1Cc1ccco1)OCCO3` here?
**A.** The Potency was “inactive”.

**Q.** For `Cc1nonc1NC(=O)CSc1nc2ccccc2o1`, which Potency is on record?
**A.** The Potency was inconclusive: 4.47 µM [inhibitor, partial curve].

**Q.** Which Potency does the source give for `COc1ccc(Cn2c(-c3ccc(C)cc3)c[n+]3ccccc23)cc1` here?
**A.** The Potency was inconclusive: 28.2 µM [inhibitor, single point].

**Q.** For `O=C1NC(=S)S/C1=C\c1coc2ccc(O)cc2c1=O`, which Potency is on record?
**A.** The Potency was “inactive”.

**Q.** With `Cc1ccc(-n2c(COc3cccc(C)c3)n[nH]c2=S)cc1` as the compound, how does the Potency read?
**A.** Its Potency is inconclusive: 3.98 µM [inhibitor, partial curve, poor fit].

**Q.** For `O=C(NCc1ccc2c(c1)OCO2)c1cc([N+](=O)[O-])ccc1N1CCOCC1`, which Potency is on record?
**A.** Its Potency is inconclusive: 8.91 µM [inhibitor, partial curve].

**Q.** Which Potency does the source give for `CCN(CC)CCN(C(=O)c1ccc2c(c1)CCCC2)c1nc2c(OC)cccc2s1` here?
**A.** Its Potency is inconclusive: 11.2 µM [inhibitor, single point].

**Q.** For `CCN(CC)Cc1ccc(NC(=O)c2sc3cc(Cl)ccc3c2Cl)cc1`, which Potency is on record?
**A.** The Potency was inconclusive: 28.2 µM [inhibitor, single point].

**Q.** Which Potency does the source give for `S=C(Nc1ccc(Br)cc1Cl)NN1CCOCC1` here?
**A.** Its Potency is inconclusive: 14.1 µM [inhibitor, single point].

**Q.** For `C=C1[C@@H](O)[C@@H]2O[C@]3(CC[C@H](/C=C/[C@@H](C)[C@@H]4CC(C)=CC5(O[C@H](C[C@@](C)(O)C(=O)OC)CC[C@H]5O)O4)O3)CC[C@H]2O[C@@H]1[C@@H](O)C[C@H](C)[C@H]1OC2(CCCCO2)CC[C@H]1C` (stereo not given in full), which Potency is on record?
**A.** The Potency was inconclusive: 7.94 µM [inhibitor, partial curve, poor fit].

**Q.** For `Cc1ccc2[nH]c(=O)c(CN(Cc3nnnn3Cc3ccccc3)C3CCCC3)cc2c1`, which Potency is on record?
**A.** Its Potency is inconclusive: 28.2 µM [inhibitor, single point].

**Q.** With `S=C1SCN(CC2CC2)CN1CC1CC1` as the compound, how does the Potency read?
**A.** Its Potency is inconclusive: 3.16 µM [inhibitor, full curve].

**Q.** With `Cc1ccc2nc(C)c3c(c2c1)N(c1ccc(F)cc1)CC3` as the compound, how does the Potency read?
**A.** The Potency was inconclusive: 2.82 µM [inhibitor, partial curve].

**Q.** With `CCCCc1ccc(NC(=O)CC(C)=O)cc1` as the compound, how does the Potency read?
**A.** The Potency was inconclusive: 2.24 µM [inhibitor, full curve, poor fit].

**Q.** With `Cc1ccc(O)c(N=CC2=C(O)c3ccccc3C2=O)c1` as the compound, how does the Potency read?
**A.** The Potency was inconclusive: 11.2 µM [inhibitor, single point].

**Q.** With `Cc1cccc(N2CCN(C(=O)c3cc(COc4ccc(F)c(F)c4)on3)CC2)n1` as the compound, how does the Potency read?
**A.** Its Potency is “inactive”.

**Q.** For `CCOC(=O)CC(S(=O)(=O)c1ccccc1)S(=O)(=O)c1ccccc1`, which Potency is on record?
**A.** Its Potency is inconclusive: 11.2 µM [inhibitor, partial curve, poor fit].

**Q.** Which Potency does the source give for `Cc1ccc(S(=O)(=O)N2C[C@H]3n4c(=O)ccc(=O)n4C[C@H](OC(=O)NCC4CCCCC4)[C@@]3(O)C2)cc1` here?
**A.** Its Potency is inconclusive: 28.2 µM [inhibitor, single point].

**Q.** For `COc1cc(-c2coc3c(C(=O)NC4CCCCC4)cccc23)ccc1O`, which Potency is on record?
**A.** Its Potency is “inactive”.

**Q.** For `C=C(CN(C)C)C(=O)c1cc(C)ccc1C`, which Potency is on record?
**A.** Its Potency is inconclusive: 8.91 µM [inhibitor, partial curve].

**Q.** Which Potency does the source give for `CC(=O)CSc1nc2ccccc2s1` here?
**A.** Its Potency is “inactive”.

**Q.** With `N#CCCn1cc(C(=O)Nc2ccccc2Br)c(-c2cc3ccccc3o2)n1` as the compound, how does the Potency read?
**A.** The Potency was inconclusive: 28.2 µM [inhibitor, single point].

**Q.** For `O=C(CCc1cn(Cc2ccccc2Cl)c2ccccc12)NC1CCCCC1`, which Potency is on record?
**A.** Its Potency is “inactive”.

**Q.** For `Cc1cccc(C(=O)OCC(=O)N2CCCCCC2)c1C`, which Potency is on record?
**A.** The Potency was “inactive”.

**Q.** Which Potency does the source give for `CCNCc1ccc(OCc2cccs2)c(OCC)c1` here?
**A.** Its Potency is inconclusive: 28.2 µM [inhibitor, single point].

**Q.** With `CC(C)(C)Cc1c(-c2ccc(F)cc2)nc2ccc(Cl)cn12` as the compound, how does the Potency read?
**A.** Its Potency is inconclusive: 20 µM [inhibitor, single point].

**Q.** Which Potency does the source give for `CC(C)(C)C1CCc2c(sc(NC(=O)C3CCCO3)c2C(N)=O)C1` (stereo not given) here?
**A.** The Potency was inconclusive: 28.2 µM [inhibitor, single point].

**Q.** Which Potency does the source give for `CC(=O)Nc1cccc(C(=O)NCCc2ccco2)c1` here?
**A.** The Potency was inconclusive: 0.501 µM [inhibitor, full curve, poor fit].

**Q.** For `CC1CCC(C(C)C)C(OCC(O)CNC(C)(C)C)C1` (stereo not given), which Potency is on record?
**A.** The Potency was “inactive”.

**Q.** Which Potency does the source give for `CC(C)CNC(=S)N1CCC(C(=O)c2ccc(F)cc2)CC1` here?
**A.** The Potency was inconclusive: 0.316 µM [inhibitor, full curve, poor fit].

**Q.** For `COc1cc(NC(=O)N2CCc3nc(Nc4cc(Cl)cc(Cl)c4)ncc3C2)cc(OC)c1OC`, which Potency is on record?
**A.** The Potency was inconclusive: 28.2 µM [inhibitor, single point].

**Q.** Which Potency does the source give for `CCOC(=O)c1ccccc1OCc1cc(/C=N/NC(=O)c2ccncc2)ccc1OC` here?
**A.** The Potency was inconclusive: 10 µM [inhibitor, single point].

**Q.** With `CCCn1c2c(c(O)c(C(=O)Nc3ccc(OC)cc3)c1=O)CCCC2` as the compound, how does the Potency read?
**A.** The Potency was “inactive”.

— PubChem BioAssay AID624418 (National Center for Advancing Translational Sciences (NCATS), 2012)
